Over roughly 33,000 sequences, “E-score (-0.5 to 0.5)” has its median near -0.056; the highest 2% begin near 0.38. This is one part of the list.
Target: Stb4 (UniProt P50104)
Assay: PBM E-score (8-mer binding enrichment) (E-score (-0.5 to 0.5)); higher = stronger / more preferred TF binding; most listed sequences are background and not binding sites
Conditions: protein concentration: 200 nM; construct: GST-DNA-binding domain
In short: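 Bound GST-tagged yeast transcription factors, applied at about 100-200 nM to double-stranded universal all-10-mer Agilent arrays, were detected with fluorescent anti-GST. Scans were normalised with masliner. A modified Wilcoxon-Mann-Whitney statistic, the E-score, was assigned to each ungapped eight-base word pooled with its reverse complement by the Universal PBM Analysis Suite.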

Row | Sequence | PBM E-score
1 | TCTCAACA | -0.169
2 | CCCGCGCC | 0.242
3 | AATTAGCG | 0.0963
4 | AGAACGTA | -0.155
5 | AGTAGCCG | 0.31
6 | ACTTCCAG | -0.0725
7 | CAATGCGA | -0.164
8 | CGCCCAAC | -0.0225
9 | ACCGCTGG | -0.144
10 | AGGGACAG | -0.206
11 | CCACCCCG | 0.208
12 | CCTCAAAC | -0.0597
13 | CTAGCTCC | 0.0436
14 | AGGTCCGA | 0.304
15 | ACTCTTCT | -0.166
16 | GAAGAGGA | -0.0364
17 | AATGTCTC | -0.0517
18 | ATTCTAAG | 0.0613
19 | CCCTCCCC | 0.176
20 | AACAATGA | -0.138
21 | GAGATTGA | -0.169
22 | CATTCCCA | -0.00341
23 | ACCTGGAA | -0.188
24 | ATGCCGCA | 0.0956
25 | AGACGACA | -0.0398

Row | Sequence | PBM E-score
26 | ATATCTGA | -0.0996
27 | ACCATAAG | -0.245
28 | TTACCTAA | -0.0268
29 | GGGCGTAC | -0.0078
30 | GAATATTA | 0.0794
31 | CCAATGCG | -0.134
32 | ACCATTTA | -0.0193
33 | CTGCGGTA | 0.0992
34 | GTTGAAGA | -0.15
35 | TTCACAAA | 0.0262
36 | CAGGGATA | -0.234
37 | CAGACGTA | -0.117
38 | GACCAAGA | -0.026
39 | AAACCGCC | 0.0665
40 | CCCAGCTA | -0.184
41 | GCTCATCC | 0.127
42 | ACGCCCCC | 0.0111
43 | CGCACGTA | -0.0723
44 | GACCACTA | -0.0106
45 | CTCTATGA | -0.289
46 | AGGAGAAA | -0.223
47 | AATAGACA | -0.103
48 | AAATTGCG | 0.114
49 | GTGTACAA | 0.0523
50 | GGCTTTAC | 0.14

Row | Sequence | PBM E-score
51 | ACCGGAGT | 0.135
52 | ATCTAGAT | -0.0404
53 | ACAAGTCC | -0.00879
54 | AGGTTTGG | -0.195
55 | CAGTGCCA | -0.312
56 | CTCTTAGC | -0.0511
57 | ATGAACTC | -0.0172
58 | ATCAGTCA | -0.0498
59 | GAATAACA | 0.0969
60 | AATATATC | 0.183
61 | ATTACCAC | -0.00999
62 | AGGAAAAT | -0.128
63 | AACTGACA | -0.103
64 | GAAGCTTA | -0.13
65 | GAGACGGC | 0.0533
66 | CGGCACCA | 0.33
67 | CTATGTAC | -0.177
68 | AATACCAA | -0.102
69 | GGATCAGA | 0.0698
70 | GATTAAGA | 0.0838
71 | AACTAATC | -0.021
72 | ACGCTCCC | 0.00542
73 | AAGCCATA | -0.339
74 | TCTTTTCA | -0.0839
75 | GAACGGTC | 0.148

Row | Sequence | PBM E-score
76 | CTACTCAG | -0.322
77 | TACGTGAA | -0.126
78 | CTAAGGGA | -0.127
79 | AGCGGTCC | 0.123
80 | AATGCCTG | -0.13
81 | AACAAGAG | -0.186
82 | CATGCCAC | -0.227
83 | AAAATTAA | -0.0798
84 | CTTTCACA | 0.00538
85 | GCGGCCTA | -0.246
86 | CGACATCA | 0.0251
87 | AGCGGCGC | -0.0593
88 | AGATAGTA | 0.0295
89 | GGGAGCCA | -0.0391
90 | GAAGGGTC | -0.137
91 | GCCCTTAA | -0.0147
92 | CCCGACGG | 0.373
93 | ATAAGTTC | 0.26
94 | CATCACAA | -0.208
95 | TATCGCCA | -0.237
96 | ACAAGTCT | -0.13
97 | TATCGACA | 0.0105
98 | CACTCGTC | 0.0228
99 | AGACATAT | -0.141
100 | GTGATCCA | -0.106

Row | Sequence | PBM E-score
101 | GAACTACA | 0.156
102 | AAAGCCGG | 0.289
103 | GCTTCTCA | -0.0393
104 | CCGGTAGG | 0.153
105 | AGTCTTTC | 0.117
106 | CCTCGGGA | 0.444
107 | AACTACTC | -0.0924
108 | CACTCGGC | 0.402
109 | AACTTTAC | 0.0543
110 | ATGCACCA | -0.225
111 | AAGCGAAT | -0.121
112 | GTACCACA | -0.00599
113 | CGGGCAAC | 0.0682
114 | CATAATAG | -0.0375
115 | CCATATCA | -0.12
116 | CGACCCGC | 0.173
117 | AGCTTCAT | 0.122
118 | ACGCCTGG | -0.154
119 | GTTTTTTA | 0.0336
120 | TAATTGAA | -0.0515
121 | AATCCCAT | -0.121
122 | GATCCCGC | 0.225
123 | CGAGATCG | 0.222
124 | CCAGCGCC | -0.0109
125 | AGACGAAA | 0.112

Row | Sequence | PBM E-score
126 | AAGATGCA | -0.248
127 | CCGAGTCC | 0.403
128 | CGCGTCCA | -0.0145
129 | GGATACCC | 0.257
130 | CGCCTTTC | -0.0815
131 | ATAAATGA | -0.0962
132 | AGTCATAA | 0.0377
133 | CTGGGAAA | -0.168
134 | CAGAGCTG | -0.307
135 | AATCAGAC | 0.002
136 | AGATGACA | -0.217
137 | TCATCTAA | 0.0409
138 | GGAGAAAA | 0.0906
139 | CCACAACG | 0.00766
140 | TATCCGGA | 0.46
141 | CCGGGGCG | 0.325
142 | CAATCGTG | -0.055
143 | CATCCACG | -0.00517
144 | ATTCTTTA | -0.206
145 | GCCATGCA | -0.0827
146 | GCCGTAAA | 0.177
147 | GGTAGTAA | 0.053
148 | AAGGTCGA | -0.155
149 | GGTCGAAC | -0.0406
150 | GCGCGCTA | -0.0794

Row | Sequence | PBM E-score
151 | GTATCTCA | -0.0552
152 | AGATTGCG | 0.0633
153 | CACCGTCA | -0.13
154 | CTTATAAA | 0.0246
155 | CGCAAACA | -0.119
156 | CAGTGGCC | -0.0336
157 | CCCCTTGC | -0.225
158 | CTCCTGTA | -0.0985
159 | CAAATAGC | -0.0963
160 | ACGACCGC | 0.0551
161 | ATGGCTGC | -0.211
162 | GTCTAGTA | -0.11
163 | ACTAGTTA | -0.25
164 | ACGGAACG | 0.327
165 | CCTAATAC | -0.0369
166 | TCAGAAGA | -0.217
167 | AGTTACTC | 0.0536
168 | ATATTTTG | 0.0515
169 | ACTGTGTA | -0.141
170 | ACGCTATA | -0.0219
171 | AAATTGAC | -0.00865
172 | CCTTTTAG | -0.264

From the supplement of paper PMC3334620
